# Source: PubChem BioAssay AID1671193 (National Center for Advancing Translational Sciences (NCATS), 2021)
# About 180 (0.12%) of roughly 150,000 compounds were called active. The shares of active, inactive and inconclusive entries below differ from those in the screen. Calls come from the whole dose curve; as a rule, active = well fitted cell-killing curve with a large enough effect; inconclusive = small, poorly fitted or top-dose-only effect, or effect the other way; inactive = flat fitted curve, though single readings scatter. Potencies of inconclusive entries are doubtful fits and often do not repeat.
# Experiment: GF-AFC viability counterscreen for inhibitors of alpha-synuclein gene (SNCA) expression; note: nearly all actives have a fitted effect of over 30% in size;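 for activity change, negative = cytotoxicity: 0% = DMSO-treated cells and -100% = medium-only wells without cells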
# Conditions: HEK-293-SNCA-luc viability, GF-AFC fluorescence, 24 h; activity change, negative = cytotoxicity: at 57.1 µM (top of the series) unless noted
# Procedure, shortened: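 Cytotoxicity counterscreen: after 24 h compound treatment of genome-edited SNCA-luciferase HEK-293 cells, live-cell protease substrate GF-AFC read by fluorescence after 30 min; activity scaled between DMSO (0%) and medium-only (-100%), curves Hill-fitted.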
# Potency is the fitted concentration of half-maximal effect; tags give direction and shape of the fitted curve.
SMILES,Potency,"activity change, negative = cytotoxicity"
O=C(NC1CC1)[C@@H]1C[C@H](Oc2ccccc2)CN1C(=O)C1(c2ccccc2)CC1,"inconclusive: 7.08 µM [cytotoxic, single point]",–
Cc1nc2cc(S(=O)(=O)N3CCOCC3)ccc2n1CCNC(=O)C1(C)CC1,inactive,–
O=C(Cc1cccc(F)c1)N1CCC(Oc2ccccc2-c2nc(C3CC3)no2)C1 (centres undefined),"inconclusive: 28.2 µM [cytotoxic, single point]",–
COCCNC(=O)C(C)N1C(=O)COc2ccc(C(=O)COc3ccc(C)c(C)c3)cc21 (centres undefined),"inconclusive: 35.5 µM [cytotoxic, single point]",–
Cc1n[nH]c(C)c1CCc1nc2c3ccccc3nc(SCC(=O)Nc3ccc(F)cc3)n2n1,"inconclusive: 10 µM [cytotoxic, partial curve, poor fit]",–
COc1ccc(-c2nc3cnccn3c2NCCC(=O)O)cc1,"inconclusive: 31.6 µM [rising, single point]",–
COc1ccc(-c2nc3scc(CCNS(=O)(=O)c4ccc(F)c(C(F)(F)F)c4)n3n2)cc1OC,"inconclusive: 6.31 µM [cytotoxic, full curve, poor fit]",–
CCCCNC(=O)c1ccc2c(c1)N(C(=O)c1ccc(OC)cc1)CC2,"inconclusive: 25.1 µM [cytotoxic, partial curve, poor fit]",–
Cc1ccccc1-c1cnc2[nH]cc(CC(=O)NCc3cccnc3)c2c1,inactive,–
Cc1nc2c(C)cccc2cc1C(=O)N1CCC2(CCNCC2)CC1,"inconclusive: 1.78 µM [cytotoxic, partial curve, poor fit]",–
C[C@@H]1C(=O)O[C@H]2[C@H]1CC[C@@]1(C)Cc3sc(NC(=O)CC(C)(C)C)nc3[C@@H](C)[C@H]21,"inconclusive: 56.2 µM [cytotoxic, single point]",–
CNC(=O)[C@@H]1C[C@@H](Nc2ncnc(Oc3cccnc3C)c2C)CN1C,inactive,–
Cc1cccc(N2CCN(C(=O)c3ccc4c(c3)N(C(=O)c3ccccc3)CC4)CC2)c1C,"inconclusive: 39.8 µM [cytotoxic, single point]",–
Cc1cc(Cl)c2oc(C(=O)N(Cc3c(C)nn(C)c3C)C3CC3)c(C)c2c1,"inconclusive: 22.4 µM [cytotoxic, partial curve, poor fit]",–
COc1ccccc1CN1CCc2nc(C(=O)Nc3ccc(Cl)cc3)oc2CC1,"inconclusive: 35.5 µM [cytotoxic, single point]",–
COc1cccc(Cc2nc3ccccc3nc2SCC(=O)N2CCN(c3ccccc3)CC2)c1,"inconclusive: 39.8 µM [cytotoxic, single point]",–
NC(=O)N1CCCC(C(=O)NCCc2noc(-c3ccccc3)n2)C1 (centres undefined),inactive,–
O=C(C1CCCN([S+](=O)([O-])c2cccs2)C1)N1CCC(c2nc3ccncc3[nH]2)C1 (centres undefined),inactive,–
COc1ccc(-c2cn3c(n2)sc2cc(C(=O)NCCCN4CCCCC4)ccc23)cc1,"inconclusive: 12.6 µM [cytotoxic, partial curve, poor fit]",–
Cc1ccccc1-c1cc(Nc2ccc(F)cc2)ncn1,inactive,–
O=C(OCc1ccccc1)N1CCOCC12CCN(Cc1ccccc1)CC2,"inconclusive: 7.94 µM [cytotoxic, full curve, poor fit]",–
c1cncc(CN2CCC[C@H]2c2nc(-c3ccnc(N4CCCC4)c3)no2)c1,inactive,–

SMILES,Potency,"activity change, negative = cytotoxicity"
COC(=O)CN1C(C(=O)c2ccccc2)=C(OC(=O)c2ccc(F)cc2)c2ccccc2S1(=O)=O,"inconclusive: 17.8 µM [cytotoxic, partial curve, poor fit]",–
O=C(Cn1cc(C(=O)c2ccco2)c2ccccc21)Nc1ccccc1,"inconclusive: 25.1 µM [cytotoxic, partial curve, poor fit]",–
O=C(Nc1ccc(-c2nnc3n2CCCC3)cc1)c1ccc(F)cc1,inactive,–
CCNC(=O)Nc1ccc(-c2nc3c(c(N4CCOCC4C)n2)CCN(C2COC2)C3)cc1 (centres undefined),"inconclusive: 1.19 µM [cytotoxic, full curve]",–
COC[C@@H]1CN(c2ncccn2)C[C@H]1C(=O)NCCn1cccn1,inactive,–
CCNc1ncc2nc(-c3ccccc3)c(=O)n(CCc3ccccc3)c2n1,"inconclusive: 14.1 µM [rising, partial curve, poor fit]",–
CC(=O)N1CCc2c(sc3c2c(=O)n(-c2ccccc2Cl)c(=O)n3Cc2cccc(C)c2)C1,"inconclusive: 35.5 µM [cytotoxic, single point]",–
CCN(C(=O)CSc1nc2ccccc2n1CC(=O)N(C)C1CCCCC1)c1ccccc1,"inconclusive: 3.55 µM [cytotoxic, full curve]",–
COc1ccc(C(=O)N2C[C@@H]3C[C@H](C2)c2ccc(NC(=O)Nc4cccc(C#N)c4)c(=O)n2C3)cc1,"inconclusive: 5.62 µM [cytotoxic, partial curve, poor fit]",–
CCN(CC)S(=O)(=O)c1ccc2c(c1)N(CC(=O)NCCCN1CCN(c3ccc(OC)cc3)CC1)C(=O)CO2,"inconclusive: 20 µM [cytotoxic, single point]",–
COCCOCC(=O)N1CCC2(CC1)CC(N(C1CC1)S(C)(=O)=O)CCO2 (centres undefined),inactive,–
O=C(CC1CCCN(c2cn[nH]c(=O)c2)C1)N1CCN(c2ccccn2)CC1 (centres undefined),"inconclusive: 39.8 µM [cytotoxic, single point]",–
CC1=C(C(=O)OC(C)C)C(c2ccc(Cl)cc2)N2C(CC(=O)N3CCCC3)=CSC2=N1 (centres undefined),inactive,–
C=C1C(=O)O[C@@H]2[C@H]1CC[C@H](C)C(CCC(=O)O)C2(C)O (some centres undefined),"inconclusive: 37.7 µM [cytotoxic, single point]",–
O=C(c1ccsc1)N1CCC(Nc2cccnc2)C1 (centres undefined),inactive,–
CC(C)(Oc1nn(Cc2cccc(Cl)c2)c2ccccc12)C(=O)N1CCCC1,"inconclusive: 31.6 µM [cytotoxic, single point]",–
Cc1cc(Cl)ccc1NC(=O)CN1C(=O)COc2ccc(S(=O)(=O)Nc3ccccc3)cc21,"inconclusive: 17.8 µM [cytotoxic, partial curve, poor fit]",–
O=C(NCC1CC1)c1ccc2nc(-c3ccncc3)oc2c1,inactive,–
O=C(Nc1nc2n(n1)C(c1ccccc1)C=C(c1ccc(Cl)cc1)N2)c1ccco1 (centres undefined),"inconclusive: 28.2 µM [rising, partial curve, poor fit]",–
COc1ccc(N2Cc3cccc(C(=O)Nc4ccc(Cl)cc4)c3C2=O)cc1,"inconclusive: 4.47 µM [rising, full curve, poor fit]",–
CCC(C=C[C@@H]1OC(=O)C=C[C@H]1C)=C[C@H](C)CC=CC(C)=C[C@@H](C)C(=O)[C@@H](C)[C@H](O)[C@@H](C)CC(C)=CC(=O)O,"inconclusive: 0.16 µM [cytotoxic, partial curve]",–
FC(F)(F)Oc1cccc(CN2CCNc3cc(Nc4cccnc4)ncc3C2)c1,"inconclusive: 20 µM [cytotoxic, partial curve, poor fit]",–

SMILES,Potency,"activity change, negative = cytotoxicity"
COc1ccc(C)cc1NC(=O)C(Cc1ccccc1)NS(=O)(=O)c1ccc(Br)s1 (centres undefined),"inconclusive: 35.5 µM [cytotoxic, single point]",–
Cc1cc(Cn2cc3c4c(cccc42)[C@H](CC(C)C)N[C@H](C(=O)NCc2nccs2)C3)no1,"inconclusive: 39.8 µM [cytotoxic, single point]",–
CCc1cc(C(=O)N2CCC3(CCC(=O)N(CCc4cnc[nH]4)C3)CC2)cs1,inactive,–
COc1ccc(NC(=O)CN2C(=O)NC(c3ccc(Cl)cc3)C3=C2COC3=O)cc1Cl (centres undefined),inactive,–
Cc1nn2c(c1-c1ccnn1C(C)C)N(CC1CCOCC1)CCC2,"inconclusive: 12.6 µM [cytotoxic, partial curve, poor fit]",–
CCC(C)n1c(=N)c(C(=O)NC2CCCCC2)cc2c(=O)n3ccccc3nc21 (centres undefined),"inconclusive: 8.91 µM [rising, partial curve]",–
COc1cc(Cl)c(C)cc1NC(c1ccccc1)c1nnc(-c2ccccc2Cl)o1 (centres undefined),inactive,–
O=C(NCc1cccnc1)C1CCN(c2ccnc3ccnn23)CC1,inactive,–
COCc1ccc2c(c1)c(OC(C)(C)C(=O)Nc1ccccn1)nn2CCC(C)C,inactive,–
COc1ccc(C(=O)N(Cc2ccc(N(C)C)cc2)CC2CCCO2)cc1 (centres undefined),"inconclusive: 7.08 µM [cytotoxic, partial curve, poor fit]",–
CCCn1cc(S(=O)(=O)c2cc(C)ccc2C)c(=O)c2cc(F)c(N3CCN(CC)CC3)cc21,"inconclusive: 6.31 µM [cytotoxic, partial curve]",–
CN1CCN(Cc2ccc(-c3ccc(C(C)(C)C#N)cc3)nc2)CC1,inactive,–
Cc1cc(Cl)ccc1-c1ccccc1C=O,inactive,–
C#CCN(C)Cc1nc(C2(O)CCN(C3CCC3)CC2)cs1,inactive,–
O=C(c1nc2sccn2c1-c1ccccc1)N1CCCCC1,–,inconclusive: -30.5% [cytotoxic] [at 87.6 µM]
O=C(NCCCN1CCCC1=O)c1csc(N2CCN(c3ccc(F)cc3)CC2)n1,inactive,–
O=C1NC(=NC2CCCCC2)C2(CCN(Cc3ccccc3)C2)N1c1cc(F)cc(F)c1 (centres undefined),"inconclusive: 22.4 µM [cytotoxic, partial curve, poor fit]",–
Cc1cc(NC(=O)CSc2nc3c([nH]c4ccccc43)c(=O)n2-c2ccccc2F)no1,"inconclusive: 15.8 µM [cytotoxic, partial curve, poor fit]",–
COc1ccc(NC(=O)C2(C)CCc3cnc(Nc4ccccc4)nc32)cn1 (centres undefined),"inconclusive: 5.01 µM [cytotoxic, full curve, poor fit]",–
Cc1ccc([N+](=O)[O-])cc1S(=O)(=O)N(C)/N=C/c1cnc2ccc(Br)cn12,"inconclusive: 0.189 µM [cytotoxic, full curve, poor fit]",–
